In all, about 310,000 compounds went through this assay and about 2,200 (0.71%) showed an effect of 50% or more. The effect is printed as a negative number. The list shows a part of the results.
Target: human ether-à-go-go-related gene (hERG) potassium channel (human, UniProt Q12809)
Assay: primary screen, population patch clamp on CHO cells stably expressing hERG

human ether-à-go-go-related gene (hERG) potassium channel, sequence (Q12809 whole entry, looked up): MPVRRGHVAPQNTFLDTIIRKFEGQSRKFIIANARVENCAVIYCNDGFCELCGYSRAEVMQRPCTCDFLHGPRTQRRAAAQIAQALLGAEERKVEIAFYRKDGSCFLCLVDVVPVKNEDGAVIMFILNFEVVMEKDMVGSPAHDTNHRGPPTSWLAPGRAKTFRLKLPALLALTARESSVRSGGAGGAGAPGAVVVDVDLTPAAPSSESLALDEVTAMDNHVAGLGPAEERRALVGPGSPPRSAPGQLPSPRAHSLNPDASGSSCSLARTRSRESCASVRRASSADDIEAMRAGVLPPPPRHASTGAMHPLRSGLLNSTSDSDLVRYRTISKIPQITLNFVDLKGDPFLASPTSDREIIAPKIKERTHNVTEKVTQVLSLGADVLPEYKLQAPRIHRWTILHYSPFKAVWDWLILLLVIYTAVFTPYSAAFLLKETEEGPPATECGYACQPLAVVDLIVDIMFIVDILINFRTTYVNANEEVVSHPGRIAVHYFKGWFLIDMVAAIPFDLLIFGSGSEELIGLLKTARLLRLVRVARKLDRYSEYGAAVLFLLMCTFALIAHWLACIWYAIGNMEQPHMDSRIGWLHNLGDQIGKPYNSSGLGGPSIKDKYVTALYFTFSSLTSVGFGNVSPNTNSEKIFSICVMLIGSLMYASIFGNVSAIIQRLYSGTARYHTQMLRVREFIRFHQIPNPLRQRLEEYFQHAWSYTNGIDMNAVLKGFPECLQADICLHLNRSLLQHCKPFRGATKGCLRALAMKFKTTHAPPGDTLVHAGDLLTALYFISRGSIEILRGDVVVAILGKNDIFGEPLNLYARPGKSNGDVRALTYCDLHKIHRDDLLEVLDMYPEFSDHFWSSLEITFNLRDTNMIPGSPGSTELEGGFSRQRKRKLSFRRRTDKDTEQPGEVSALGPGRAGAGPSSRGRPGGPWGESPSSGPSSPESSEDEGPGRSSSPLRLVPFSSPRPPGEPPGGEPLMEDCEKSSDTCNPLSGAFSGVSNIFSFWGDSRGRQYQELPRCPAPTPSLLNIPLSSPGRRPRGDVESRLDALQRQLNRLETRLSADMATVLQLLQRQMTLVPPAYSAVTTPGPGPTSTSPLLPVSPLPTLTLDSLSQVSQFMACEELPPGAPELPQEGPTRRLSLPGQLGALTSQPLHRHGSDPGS

Going from `CCc1ccccc1N(CC(=O)NCc1ccco1)C(=O)CCC(=O)Nc1ccccn1` to `Cc1ccccc1N(CC(=O)NC(C)(C)C)C(=O)c1ccc(-c2ccccc2)[nH]1`, the “hERG current change (%, negative = inhibition) at 1uM” value falls from 12.1% to 3.83%.

Going from `Cc1nc(C(C)NC(=O)CCc2nnc(CCCc3ccccc3)o2)c(C)s1` (stereo not shown) to `O=C(COc1ccccc1)Nc1nc2cc3c(cc2s1)OCCO3`, the “hERG current change (%, negative = inhibition) at 1uM” value falls from 7.83% to 6.05%.

Compared with `COc1ccc(Oc2c(O)c3ccccc3n(C)c2=O)cc1`, `COc1ccc(OCCOC(=O)CCS(=O)(=O)c2ccc(C)cc2)cc1` is higher in “hERG current change (%, negative = inhibition) at 1uM” value: 9.63% for the first, 14.9% for the second.

First: Cc1cc(NC(=O)C2CC(=O)N(c3ccccc3C)C2)no1 (stereo not shown)
Second: COc1cccc(N2CC(C(=O)Nc3nnc(SCC(=O)NCc4ccco4)s3)CC2=O)c1 (stereo not shown)
The “hERG current change (%, negative = inhibition) at 1uM” value of the first is lower: 13.7% for the first, 13.8% for the second.

Going from `CCOC(=O)Cc1csc(NC(=O)CSC2=NCCS2)n1` to `CCOC(=O)N1CCN(C(=O)c2ccc(OC(C)=O)cc2)CC1`, the “hERG current change (%, negative = inhibition) at 1uM” value falls from 16.1% to 13%.

Compared with `CC(C(=O)O)N(c1ccccc1Cl)S(C)(=O)=O` (stereo not shown), `CCn1c2ccccc2c2cc(NC(=O)COC(=O)c3cc(S(N)(=O)=O)c(Cl)cc3Cl)ccc21` is higher in “hERG current change (%, negative = inhibition) at 1uM” value: -6.64% for the first, 9.4% for the second.

Going from `O=C(Nc1ccccc1N1CCCCC1)c1cnccn1` to `OC(CSc1c(Cl)cccc1Cl)CN1CCN(c2ccccc2F)CC1` (stereo not shown), the “hERG current change (%, negative = inhibition) at 1uM” value falls from 7.8% to -9.9%.

Compared with `Cn1c(=O)c2c(ncn2CC(=O)N2CCN(S(=O)(=O)c3ccc(F)cc3)CC2)n(C)c1=O`, `Cc1ccc(S(=O)(=O)N2CCN(CC(=O)N/N=C\c3cccnc3)CC2)cc1` is higher in “hERG current change (%, negative = inhibition) at 1uM” value: 5.15% for the first, 15.4% for the second.

First: CCOC(=O)C1CCCN(C(=O)c2ccc3c(c2)N(Cc2ccccc2)C(=O)c2ccccc2S3=O)C1 (stereo not shown)
Second: CC(=O)Nc1ccc(N=C(C2=C(O)c3ccccc3C2=O)c2ccccc2)cc1
The “hERG current change (%, negative = inhibition) at 1uM” value of the first is lower: 8.55% for the first, 10.7% for the second.

Compared with `CC12CNCC(C)(CNC1)C2O` (stereo not shown), `CC(C)Cc1nnc(NC(=O)C2CCCC2)s1` is lower in “hERG current change (%, negative = inhibition) at 1uM” value: 15.4% for the first, 11.5% for the second.

First: COC(=O)CNC(=O)COC(=O)c1cc(F)c(F)cc1Cl
Second: CC(C)[C@H](NC(N)=O)C(=O)NCCc1ccc(Cl)cc1Cl
The “hERG current change (%, negative = inhibition) at 1uM” value of the first is higher: 11.1% for the first, -10.1% for the second.

Compared with `CCOC(=O)c1ccc(N2C(=O)CC(Sc3nc(O)c(CC)c(=O)[nH]3)C2=O)cc1` (stereo not shown), `C=CCc1cc(/C=C2/NC(=O)N(CC)C2=O)cc(OCC)c1OCc1ccc(C(=O)O)cc1` is lower in “hERG current change (%, negative = inhibition) at 1uM” value: 16.2% for the first, 7.07% for the second.

First: CC(=O)c1cc(C#N)c(SCCC(C)C)nc1C
Second: CC(=O)c1c(C)nn(CC(=O)NC2CCCN(Cc3ccc(CC(C)C)cc3)C2)c1C (stereo not shown)
The “hERG current change (%, negative = inhibition) at 1uM” value of the first is higher: -1.21% for the first, -18.8% for the second.

Going from `CCOc1cc(/C=N/N2C(=O)NC3(CCCCC3)C2=O)cc(Br)c1O` to `COc1cc(/C=N/NC(=O)CCOc2ccccc2C)cc(Br)c1O`, the “hERG current change (%, negative = inhibition) at 1uM” value falls from 21.5% to 12.3%.

Going from `Cc1ccc(NC(=O)c2snc3ccc(Cl)cc23)cc1C` to `Cc1nc2cc(NC(=O)Nc3cccc(F)c3)ccc2n1C`, the “hERG current change (%, negative = inhibition) at 1uM” value rises from 7.71% to 8.54%.

First: Cc1ccc(S(=O)(=O)NC2CC(C)(C)N(O)C(C)(C)C2)cc1.Cl
Second: Cc1ccc(NC(=O)Nc2ccc3c(c2)N(C)C(=O)CS3)nc1
The “hERG current change (%, negative = inhibition) at 1uM” value of the first is higher: 7.9% for the first, -5.11% for the second.

Compared with `Nc1ccc(NC(=O)NC2CCCCC2)cc1`, `O=C(COc1ccccc1F)Nc1ccc(S(=O)(=O)Nc2nccs2)cc1` is lower in “hERG current change (%, negative = inhibition) at 1uM” value: 15.8% for the first, 5.26% for the second.

First: COc1cc(OC)c(NC(=O)CC(=O)Nc2cc(Cl)c(OC)cc2OC)cc1Cl
Second: COc1cc(/C=C(/NC(C)=O)C(=O)O)cc(Cl)c1OCc1ccc(Br)cc1
The “hERG current change (%, negative = inhibition) at 1uM” value of the first is higher: 15% for the first, -4.77% for the second.

First: COc1ccccc1COCC(O)CN1CCN(S(=O)(=O)c2cccc(F)c2)CC1 (stereo not shown)
Second: NS(=O)(=O)c1ccc(CCNC(=O)C(=O)c2cn(CC(=O)N3CCOCC3)c3ccccc23)cc1
The “hERG current change (%, negative = inhibition) at 1uM” value of the first is lower: -3.07% for the first, 11.9% for the second.

Going from `NC(=O)C[C@@H]1N[C@]2(C(=O)Nc3ccccc32)[C@@H]2C(=O)N(c3cc(C(F)(F)F)ccc3Cl)C(=O)[C@H]12` to `CCC1C(=O)Nc2ccccc2N1C(=O)c1ccc(Cl)nc1` (stereo not shown), the “hERG current change (%, negative = inhibition) at 1uM” value falls from 9.92% to -0.521%.

Compared with `COc1cc([C@H]2Oc3cc([C@H]4Oc5cc(O)cc(O)c5C(=O)[C@@H]4O)ccc3O[C@@H]2CO)ccc1O`, `Cc1ccc(NC(=O)Cn2nnc(-c3ccc4c(c3)OCO4)n2)cc1F` is higher in “hERG current change (%, negative = inhibition) at 1uM” value: 8.59% for the first, 13.6% for the second.

First: CCc1nonc1NC(=O)c1oc2ccc(Cl)cc2c1C
Second: CCOc1cc2oc(=O)c3c(c2cc1Cl)CCC3
The “hERG current change (%, negative = inhibition) at 1uM” value of the first is lower: 10.1% for the first, 10.5% for the second.

Compared with `Cc1ccc2cc(CN(CCCN3CCOCC3)C(c3nnnn3Cc3ccco3)C(C)C)c(=O)[nH]c2c1C` (stereo not shown), `COc1cccc(-c2nnc(SCC(=O)OC(C)C)n2Cc2ccco2)c1` is higher in “hERG current change (%, negative = inhibition) at 1uM” value: -1.82% for the first, 2.84% for the second.

Compared with `COc1ccc2c(c1)CCN(C(=O)CCl)C2C1C(=O)CCCC1=O` (stereo not shown), `CCC(C)Sc1ccc([C@@H]2[C@H]3C(=O)N(CC)C(=O)[C@H]3[C@]3(C(=O)OC)CCCN23)cc1OC.O=C(O)C(F)(F)F` (stereo partly shown) is lower in “hERG current change (%, negative = inhibition) at 1uM” value: 4.23% for the first, -11.8% for the second.

Going from `CSCCC(=O)N1CCN(CC(=O)N2CCCC2)CC1` to `O=C(COC(=O)c1cccs1)NCc1ccco1`, the “hERG current change (%, negative = inhibition) at 1uM” value falls from 11.8% to 6.46%.

First: Cc1cccc(N=C2C(=O)Nc3c(Cl)cccc32)c1
Second: O=C(c1ccc(Cl)s1)N1CCc2ccccc21
The “hERG current change (%, negative = inhibition) at 1uM” value of the first is higher: 23.2% for the first, 0.572% for the second.

First: c1ccc(CCn2nnnc2CN2CCc3ccccc32)cc1
Second: O=S(=O)(NCc1ccccn1)c1ccc2c(c1)OCCO2
The “hERG current change (%, negative = inhibition) at 1uM” value of the first is lower: 8.2% for the first, 8.68% for the second.

With `NS(=O)(=O)c1ccc(CCNC(=O)c2ccncc2)cc1` the “hERG current change (%, negative = inhibition) at 1uM” value was 14.4%.

— paper PMC4336329 (PLoS ONE, 2015)
